To fix the notation:
B1: LINE1-mini (parent)
chain: GGCAGAGCUCAACACAGCGUGGCAAAGUGGCUGUGGCUAGACUGCC

Read counts are not given, so values of variants with three or more changes are uncertain.

Variants of B1 are the subject of the data set. In words: self-cleavage, relative activity (ratio to wild type); higher = more cleavage; in vitro, sequencing; the parent is a self-cleaving ribozyme.
As to C8A U9C A12G G17C C37A, the self-cleavage is 0.02.
The result for G7U G35U A39G G40U reads 0.06; that for C8A C23U C42A, 0.1; that for C8G A12G G29U, 0.03.
The result for G7U C15U A16C G17A G19C C23G G29A reads 0.12; that for C8A U28A G29U G36C, 0.04.
On to C8G A14G G33C C42G U43C, for which the self-cleavage was 0.03.
For C8G A12C A41U C42G, the self-cleavage was 0.04.
As for C8A A25C G30A G40U, the self-cleavage came out at 0.2.
With C8A A12U C15U C31A C46U, the self-cleavage amounted to 0.07.
C8G A11U A24U A25U: the self-cleavage stood at 0.04.
Consider G7U G22U C42U C46G, for which the self-cleavage was 0.05.
As for C8A C10U U20A G21U U38G, the self-cleavage was determined as 0.03.
With C8A G21U C23G, the self-cleavage was determined as 0.09.
Regarding C8A C18A U20A G29A G40C, the self-cleavage amounted to 0.23.
Regarding C8A C13G G44C, the self-cleavage was 0.09.
For the variant C8A U32C C37A, the self-cleavage was determined as 0.18.
Consider C8A U9C A11G, for which the self-cleavage turned out to be 0.04.
For C8A C13A A16U A25U U38C, the self-cleavage amounted to 0.03.
The result for G7U G29A C45A reads 0.24; that for C8A G17A G19A G27C G29U C37A U43A C46G, 0.11; that for C8A C10A C18A G30U G36A C42U U43A, 0.02.
The result for C8A A26G G36A reads 0.07; that for C8A G27A G40U U43G, 0.55.
Take C8A A11U U32C: the self-cleavage worked out at 0.02.
Regarding G7U G27C C45G, the self-cleavage is 0.07.
In the case of C8A G27U G30A U32C, the self-cleavage is 0.24.
Take C8G A12U C45G: the self-cleavage was determined as 0.01.
Take C8A C13U G19C G21A: the self-cleavage was 0.29.
The result for C8G A25C C46A reads 0.21; that for G7U U9A C13G A14U U20C, 0.36.
With C8A G21U G22C C46A, the self-cleavage worked out at 0.62.
Consider C8A C15A A25G U28A, for which the self-cleavage amounted to 0.32.
Regarding C8A U28A G36A G40U, the self-cleavage turned out to be 0.18.
As for C8A A12C G30C, the self-cleavage is 0.
Take C8A U9A A14U C31G: the self-cleavage worked out at 0.09.
In the case of C8A A11U A16G G19A, the self-cleavage was 0.02.
On to G7U C15G C42A U43A, for which the self-cleavage is 0.13.
With C8A C10U G36U U43A, the self-cleavage worked out at 0.62.
On to C8A U38C C45G, for which the self-cleavage was found to be 0.2.
For C8A C18G U28G U43G C46A, the self-cleavage came out at 0.17.
With C8A C23G U32A, the self-cleavage is 0.19.
Take C8G A25G A26U: the self-cleavage worked out at 0.02.
The result for C8A G29U U34C reads 0.06; that for C8A C23A G40U G44C, 0.09; that for G7U C18A A25U A26G, 0.04.
On to C8A A12U G30A, for which the self-cleavage came to 0.2.
The result for C8A A26U C45U reads 0.11.
In the case of C8A A12G A24G G27U U32G G35C, the self-cleavage amounted to 0.02.
For C8A A11C A12G G21C C23A U28C C31U, the self-cleavage came to 0.02.
Regarding G7U G27U U32G, the self-cleavage amounted to 0.08.
For the variant C8A C10U A25C C37A, the self-cleavage was 0.02.
Regarding C8A A11C G17U, the self-cleavage worked out at 0.01.
The result for G7U U9A G27A reads 0.08; that for C8A G19C G30U, 0.13.
For the variant G7U C10G U32A, the self-cleavage came to 0.01.
For C8G A16G G19U, the self-cleavage came out at 0.04.
For C8A C13U U43G, the self-cleavage was 0.29.
The result for G7U U28G U34A reads 0.04.
The result for G7U C18G C23G G27U G29A reads 0.03; that for C8A C13U A26C G29A, 0.36.
Take C8A C15A G35C A39G G44U: the self-cleavage came to 0.11.
The result for C8A A14C A26G G35U C42U reads 0.13.
Regarding C8A C10U A11U, the self-cleavage amounted to 0.01.
In the case of G7U C18A U20A, the self-cleavage is 0.04.
On to G7U G29U C37U, for which the self-cleavage came to 0.11.
Consider C8A C15U G35C C46A, for which the self-cleavage was found to be 0.1.
The result for C8A A16U U28G G30C A39G reads 0.17; that for C8G A12G C23A, 0.
The result for C8G A14U G17U G35C U38G G44U reads 0.03; that for C8A A11G C23G, 0.02; that for C8A G21C G22U, 0.08.
The result for C8A C10G G19C G40A reads 0; that for C8A A11G G19U C31U C46A, 0.02.
As to C8A G33C C45U, the self-cleavage stood at 0.02.
For the variant C8A G33C C45A, the self-cleavage worked out at 0.04.
As for C8A C23A A39C, the self-cleavage stood at 1.39.
On to C8A C13A G35A C46A, for which the self-cleavage turned out to be 0.06.
With G7U G29U G30A G36C C37A, the self-cleavage was 0.28.
For the variant C8A C23G G36A G40U, the self-cleavage was 0.39.
The result for C8A G29A U34G reads 0.28; that for C8A G22U G30C G33C C42A, 0.1.
Consider C8A C31A U34C G35U, for which the self-cleavage is 0.12.
C8A A12G U20A A25G C31U U32A G35A: the self-cleavage was 0.06.
For C8A C10A A16U C46U, the self-cleavage came out at 0.02.
With G7U C10U U34A G40U, the self-cleavage stood at 0.06.
As for C8A G21C G27C A41U, the self-cleavage was 0.17.
In the case of G7U G35A C42A, the self-cleavage was found to be 0.75.
The result for C8A A11C G17C C18A U20A G40C C42A C45U reads 0.01.
The result for C8A C13A C46U reads 0.16; that for C8A C18U G33A C37U, 0.03; that for G7U C31G U34A C37U U43A, 0.01.
With G7U C10U G19U A26G U28G G29A, the self-cleavage was 0.01.
G7U C18A U20C G22A C23U: the self-cleavage is 0.08.
As to G7U U9C C10U, the self-cleavage was found to be 0.02.
The result for C8A C13A G33U G35C A41G reads 0.11; that for G7U C10U C13A U34A G40C C45U, 0.07; that for C8G A11U G19A, 0.01.
On to G7U C18U U20C G30C C42G, for which the self-cleavage is 0.03.
For G7U G19A C45A C46G, the self-cleavage came to 0.05.
Turning to C8A C15G U20C G33A, the self-cleavage was 0.04.
On to C8A A11C C18A U32G G33C G44A, for which the self-cleavage was 0.01.
As to G7U G22U G36C, the self-cleavage stood at 0.15.
Turning to C8A A11U G17U U20C G35C G44U, the self-cleavage is 0.01.
Regarding C8A C23U G27A C37A, the self-cleavage was 0.04.
C8A U9A U20C: the self-cleavage is 0.07.
Take C8A A14U A16G: the self-cleavage is 0.45.
With C8A A11C G22U U38G, the self-cleavage is 0.03.
The result for C8A C15G G17U A25U reads 0.21; that for G7U G35U U38G, 0; that for C8A A11G G44A C45A, 0.04.
On to C8A U9G G29U C42U, for which the self-cleavage worked out at 0.06.
As to C8A A24U G36C, the self-cleavage worked out at 0.08.
Take C8A G40A C46U: the self-cleavage came to 0.16.
For C8G A14G A24C, the self-cleavage worked out at 0.25.
For the variant C8A A11G G19U G30C, the self-cleavage came to 0.03.
Consider C8G A14G C37U, for which the self-cleavage came out at 0.06.
Regarding G7U G33A C46A, the self-cleavage worked out at 0.33.
Regarding G7U G22U C45U C46A, the self-cleavage is 0.03.
Turning to C8A C23A C37U A39U, the self-cleavage amounted to 0.04.
As for G7U G29C C31G, the self-cleavage is 0.07.
With G7U G19A G27A C46A, the self-cleavage worked out at 0.02.
As to G7U G17C A41C, the self-cleavage came out at 0.06.
For the variant G7U C15G G27U U28A, the self-cleavage amounted to 0.15.
In the case of C8A G21U G33C U43A, the self-cleavage came out at 0.03.
Consider C8A C13U U20C, for which the self-cleavage was 0.24.
The result for G7U C18G A24G A25U reads 0.06; that for C8A U20A C46G, 0.04; that for C8A G17U C23G U43A, 0.41.
Turning to G7U U20A G29C U32C U34C G36C C37A A39C, the self-cleavage was 0.
As for C8A G22A A26U, the self-cleavage was determined as 0.1.
Consider G7U U9C U43A, for which the self-cleavage came to 0.
The result for C8A C18U C42A reads 0.08; that for G7U U28A G29C G30C G33C, 0.03.
As to C8A A16U G19C, the self-cleavage turned out to be 0.09.
Take C8G A12U C23A A26G: the self-cleavage came to 0.07.
With C8A G36U G40C, the self-cleavage came to 0.06.
On to C8G A14U A25C A41G, for which the self-cleavage is 0.26.
As to G7U C23A A26C G29U U32A G44U, the self-cleavage came out at 0.51.
For C8A C23U U34C C42A, the self-cleavage stood at 0.17.
For G7U C18U U28G C31A G40C, the self-cleavage was found to be 0.01.
On to C8A U9A G19A A39G, for which the self-cleavage amounted to 0.41.
As for C8A U9G A14C G27U C37G, the self-cleavage turned out to be 0.12.
As for C8A C15A C23G, the self-cleavage came out at 0.29.
On to G7U C13A G21A G29A G35A U43A, for which the self-cleavage amounted to 0.02.
For the variant C8A G22A C37A A41U C46U, the self-cleavage was found to be 0.08.
The result for G7U U28A G29A G30U C42U C45A reads 0.27.
The result for C8A U32A A41U reads 0.57; that for C8A G17C C18G, 0.2; that for G7U G19A G36A, 0.22.
With G7U C18G G40U C46U, the self-cleavage came to 0.01.
Take G7U G17C A25G: the self-cleavage is 0.22.
Turning to C8A A12G G22C, the self-cleavage is 0.29.
On to G7U C10U A12C G21U U34C, for which the self-cleavage amounted to 0.01.
Regarding C8A C15A U20G, the self-cleavage was found to be 0.13.
Take C8A C23A G27A G36U: the self-cleavage turned out to be 0.53.
C8A C13U G30U: the self-cleavage was 1.09.
As for G7U C10U A26C G40U, the self-cleavage came to 0.02.
As to G7U C15U A24C, the self-cleavage was 0.11.
In the case of C8A U9A A16G C23G U38G, the self-cleavage turned out to be 0.03.
For the variant C8G A14C U43A, the self-cleavage turned out to be 0.13.
For the variant C8A C31U A39C G40U C45U, the self-cleavage was determined as 0.01.
Regarding G7U C31A G40U, the self-cleavage was 0.48.
For G7U U9C A16C G19U G36U C46A, the self-cleavage amounted to 0.04.
C8G A12U C42G: the self-cleavage stood at 0.07.
On to G7U G22C C37U, for which the self-cleavage was determined as 0.
With G7U G22C C37A, the self-cleavage is 0.03.
